Assay results from PubChem BioAssay AID2546 (National Center for Advancing Translational Sciences (NCATS), 2010).
The whole screen tested about 310,000 compounds, of which about 11,000 (3.5%) were called active. The shares of active, inactive and inconclusive entries below differ from those in the screen. The call rests on the fitted dose curve; in most records, active means well fitted inhibition curve with a large enough effect; inconclusive means small, poorly fitted or top-dose-only effect, or effect the other way; inactive means flat fitted curve, though single readings scatter. No potency is given beside an inconclusive call; the fits are too rough.
Potency means the concentration at half of the fitted maximal effect; tags describe the fitted curve by direction and shape.

Assay: VP16 counterscreen qHTS for inhibitors of ROR gamma transcriptional activity;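 further: Gal4-VP16 expression switched on by copper sulfate through the metallothionein promoter; nearly all actives have a fitted effect of over 50% in size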
Settings: Drosophila S2 Gal4-VP16 UAS-luciferase, luminescence, 20 h; series mostly up to 53.6 µM
With `C(=C\c1nc(-c2ccccc2)no1)/c1ccccc1` the Potency was “inactive”.
With `Cc1[nH]c2ccccc2c1SCC(=O)N1CCCCC1` the Potency was inconclusive [activator, partial curve].
In the case of `COc1cc(OC)c(C2=NOC(C(=O)N3CCCc4ccccc43)C2)cc1Cl` (centres undefined), the Potency is reported as active: 4.47 µM.
In the case of `O=C(NCCN1C(=O)S/C(=C\c2ccc(Cl)c(Cl)c2)C1=O)c1ccc2c(c1)C(=O)N(Cc1ccncc1)C2=O`, the Potency is reported as inconclusive [inhibitor, partial curve].
For `CCc1ccc(OCCCCCn2ccnc2)cc1`, the Potency was inconclusive [inhibitor, single point].
For `O=[N+]([O-])c1cccc(NC(=S)NCc2ccncc2)c1`, the Potency was “inactive”.
In the case of `CCOc1ccccc1NC(=O)/C=C/C(N)=O`, the Potency is reported as active: 5.62 µM.
For `Cc1ccccc1CC1S/C(=N/N=C/c2ccco2)NC1=O` (centres undefined), the Potency was active: 2 µM.
For `CC(NC(=O)CSc1cccc(C(F)(F)F)c1)c1ccccc1` (centres undefined), the Potency was inconclusive [inhibitor, single point].
With `Cc1ccc(S(=O)(=O)Oc2ccccc2/C=N/NC(N)=S)cc1` the Potency was inconclusive [inhibitor, single point].
In the case of `Cc1ccccc1/C(N)=N/OC(=O)N1c2ccccc2Sc2ccccc21`, the Potency is reported as inconclusive [inhibitor, single point].
With `O=C(Nc1ccc(Cl)cc1)N1CCCN(c2ccc(C(F)(F)F)cc2[N+](=O)[O-])CC1` the Potency was inconclusive [inhibitor, single point].
In the case of `O=C(Nc1nc2ccccc2[nH]1)c1cccc(S(=O)(=O)N2CCOCC2)c1`, the Potency is reported as inconclusive [inhibitor, single point].
For `CC(C)[C@H](NC(=O)N1c2ccccc2NC(=O)[C@@H]1C(C)C)C(=O)N1CCC[C@H]1C(=O)O`, the Potency was “inactive”.
With `Brc1ccc(OCc2nc(-c3ccccn3)n[nH]2)cc1` the Potency was inconclusive [inhibitor, single point].
In the case of `C=CCNC(=S)N/N=C/c1ccccc1OCCOc1ccccc1`, the Potency is reported as active: 5.01 µM.
With `COc1ccc(C(=O)NCc2cccnc2)cc1S(=O)(=O)N1CCCc2ccccc21` the Potency was inconclusive [inhibitor, single point].
In the case of `CCOc1cc(C(=O)NC(=S)Nc2nc(C)cc(C)n2)cc(OCC)c1OCC`, the Potency is reported as inconclusive [inhibitor, single point].
In the case of `CC/C(CC(=O)C(F)(F)F)=N\NC(=O)/C(C#N)=C/N(C)C`, the Potency is reported as inconclusive [inhibitor, single point].
With `O=C(Nc1ccccc1Cl)c1ccc2c(c1)N(Cc1ccc(F)cc1)C(=O)CS2=O` (centres undefined) the Potency was “inactive”.
For `O=C(CSc1nnnn1C1CCCC1)c1ccc2c(c1)OCCO2`, the Potency was inconclusive [inhibitor, single point].
In the case of `CCn1cc(/C=N/NC(=O)c2ccc(C#N)cc2F)c2ccccc21`, the Potency is reported as active: 10 µM.
For `Cc1ccc(S(=O)(=O)Nc2ccc3c(c2)CCC3)cc1C`, the Potency was inconclusive [inhibitor, single point].
For `Clc1cc2c(cc1/C=N/Nc1nc(N3CCOCC3)nc(N3CCOCC3)n1)OCO2`, the Potency was “inactive”.
In the case of `O=C(c1cc(COc2ccc(F)c(F)c2)on1)N1CCSCC1`, the Potency is reported as “inactive”.
With `O=C1C=C(Nc2cccc(Cl)c2)CC(c2ccco2)C1` (centres undefined) the Potency was inconclusive [inhibitor, single point].
With `COc1cccc(-c2nnc(SC(C(=O)c3c[nH]c4ccccc34)c3ccccc3)n2C)c1` (centres undefined) the Potency was inconclusive [inhibitor, partial curve].
In the case of `CCOc1ccc(NC(=O)c2ccccn2)cc1`, the Potency is reported as active: 4.47 µM.
With `COc1cccc(NCCC(=O)c2cccc([N+](=O)[O-])c2)c1` the Potency was inconclusive [activator, partial curve].
With `Cc1nn(-c2ccccc2)c2nc(-c3ccncc3)cc(C(=O)NCc3ccco3)c12` the Potency was “inactive”.
For `Cc1cccc(NC(=S)N2CCn3cccc3C2c2cccnc2)c1` (centres undefined), the Potency was inconclusive [inhibitor, single point].
In the case of `CC(C)(C)c1ccc(OCC(=O)NNC(=S)NC(=O)c2ccccc2[N+](=O)[O-])c(Br)c1`, the Potency is reported as active: 15.8 µM.
In the case of `O=C(O)c1ccc(NS(=O)(=O)c2cccc(C(=O)Nc3cccc(C(=O)O)c3)c2)cc1`, the Potency is reported as “inactive”.
With `CNC(=O)c1[nH]cnc1C(=O)Nc1ccccc1OC` the Potency was active: 15.8 µM.
With `CCn1c(-c2ccc(N(C)C)cc2)nc2ccccc21` the Potency was inconclusive [inhibitor, single point].
In the case of `O=C(NNC(=S)NCc1ccccc1)c1ccccc1OC(F)F`, the Potency is reported as inconclusive [inhibitor, partial curve].
For `Cc1csc(NC(=O)c2cc3c(s2)CCC3)n1`, the Potency was active: 8.91 µM.
For `O=C(Cn1ncc(Cl)c(Cl)c1=O)N1CCN(S(=O)(=O)c2ccc3ccccc3c2)CC1`, the Potency was inconclusive [inhibitor, partial curve].
In the case of `COCCn1c(=O)[nH]c(=O)c2c1nc(-c1cc(Br)c3c(c1)OCO3)n2Cc1ccccc1`, the Potency is reported as “inactive”.
With `Cc1ccc2nc(C(C)O)[nH]c2c1` (centres undefined) the Potency was “inactive”.
In the case of `O=C(CSC(=S)N1CCN(c2ccccc2)CC1)Nc1nc(-c2ccccc2)c(-c2ccccc2)o1`, the Potency is reported as “inactive”.
With `CCOC(=O)/C=C/C(=O)OCC(=O)N1CCN(C(=O)c2ccco2)CC1` the Potency was inconclusive [inhibitor, single point].
For `C/C(=N/NC(=O)c1ccc(C)s1)c1cccc(NC(=O)COc2ccc(Cl)cc2C)c1`, the Potency was “inactive”.
For `O=C(NCCCN1CCOCC1)C1CC(=O)N(C2CCCCC2)C1` (centres undefined), the Potency was inconclusive [inhibitor, single point].
In the case of `CC(Oc1ccccc1)c1ccnc(N)n1` (centres undefined), the Potency is reported as inconclusive [activator, partial curve, poor fit].
With `O=C1Nc2ccc(Cl)cc2/C1=C/C1CC=CCC1` (centres undefined) the Potency was inconclusive [inhibitor, single point].
In the case of `CC(=O)Oc1cccc(N2C(=O)c3cccc4c([N+](=O)[O-])ccc(c34)C2=O)c1`, the Potency is reported as active: 5.62 µM.
In the case of `S=C(c1ccc(OCc2ccccc2)cc1)N1CCCC1`, the Potency is reported as inconclusive [inhibitor, single point].
For `COc1ccc(OCc2ccc(/C=N\NC(=O)c3sccc3C)o2)cc1`, the Potency was inconclusive [inhibitor, single point].
In the case of `CC(C)(C)N=Cc1c(O)ccc2oc3c(c12)CCCC3`, the Potency is reported as “inactive”.
For `Cc1ncoc1C(=O)Nc1ccc(Oc2ccccc2)cc1`, the Potency was inconclusive [inhibitor, single point].
In the case of `FC(F)Oc1ccc(/C=N/n2c(Cc3ccc(Br)cc3)n[nH]c2=S)cc1`, the Potency is reported as inconclusive [inhibitor, partial curve, poor fit].
For `Cc1occc1C(=O)N/N=C/c1ccc(Br)s1`, the Potency was active: 10 µM.
In the case of `CCN(CC)C(=S)NC(=O)Cc1ccccc1`, the Potency is reported as inconclusive [inhibitor, single point].
In the case of `C=CCOc1ccc(C2C(C#N)=C(N)N(Nc3ccccc3)C3=C2C(=O)CCC3)cc1OC` (centres undefined), the Potency is reported as “inactive”.
For `O=C(c1ccccc1)c1ccc2nc(-c3ccco3)c(-c3ccco3)nc2c1`, the Potency was inconclusive [activator, single point].
In the case of `Fc1ccc(NCc2nnc(SCc3nnc(-c4ccccc4)o3)n2Cc2ccccc2)cc1`, the Potency is reported as inconclusive [inhibitor, single point].
In the case of `O=C(/C=C/c1ccco1)NC(=S)Nc1cccc([N+](=O)[O-])c1`, the Potency is reported as inconclusive [inhibitor, single point].
With `O=C(NCCCCCCNC(=O)c1ccccc1O)c1ccccc1O` the Potency was inconclusive [inhibitor, single point].
In the case of `N#Cc1ccccc1OCC(=O)NCC(c1cccs1)N1CCOCC1` (centres undefined), the Potency is reported as “inactive”.
With `COCCNC(=O)c1cccc(OC2CCN(Cc3ccc(C(=O)OC)cc3)CC2)c1` the Potency was “inactive”.
With `CNC(=O)CSc1nnc(COc2ccc(Cl)cc2)n1CCOC` the Potency was “inactive”.
With `O=C1OCCC1Sc1nnc(-c2ccc(Br)cc2)o1` (centres undefined) the Potency was inconclusive [inhibitor, single point].
For `c1ccc(CCNc2nc3ccccc3s2)cc1`, the Potency was inconclusive [inhibitor, single point].
With `COC(=O)N1CCC2(CC1)CN(C(=O)Nc1ccccc1)C2` the Potency was “inactive”.
For `Cc1ccc(C(=O)NCCCc2ccccc2)c(C)c1`, the Potency was inconclusive [inhibitor, single point].
In the case of `CC(C)(C)c1ccc(C(=O)NCc2cccnc2)cc1`, the Potency is reported as “inactive”.
With `Cn1c(C(=O)N2CCCC(C(=O)NCCc3ccccc3)C2)cc2sccc21` (centres undefined) the Potency was inconclusive [inhibitor, single point].
For `Cc1ccc2cccc(NC(=S)NC(=O)c3ccnn3C)c2n1`, the Potency was inconclusive [inhibitor, partial curve, poor fit].
With `CCOC(=O)CSc1ccc(-c2nc3ccccc3[nH]2)cn1` the Potency was “inactive”.
With `COc1ccc(-n2c(C)cc(C(=O)CN3C(=O)NC4(CCCc5sccc54)C3=O)c2C)cc1` (centres undefined) the Potency was inconclusive [inhibitor, single point].
With `O=C(OC1CCOC1=O)c1ccc(-c2nc3ccccc3s2)s1` (centres undefined) the Potency was active: 1 µM.
In the case of `N#CC1=C(N)N=C(SCc2ccccc2)C(C(N)=O)C12CCCCC2` (centres undefined), the Potency is reported as inconclusive [inhibitor, single point].
In the case of `O=C(Nc1cc([N+](=O)[O-])ccc1O)c1cccc([N+](=O)[O-])c1`, the Potency is reported as inconclusive [activator, partial curve, poor fit].
